# Measurements from paper PMC4336329 (PLoS ONE, 2015).
# The campaign covered roughly 310,000 compounds. About 2,200 (0.71%) showed an effect of 50% or more. The effect is printed as a negative number. This is one part of the list.
# Target: human ether-à-go-go-related gene (hERG) potassium channel (human, UniProt Q12809)
# Test: primary screen, population patch clamp on CHO cells stably expressing hERG
# Chain of human ether-à-go-go-related gene (hERG) potassium channel (Q12809 whole entry, looked up): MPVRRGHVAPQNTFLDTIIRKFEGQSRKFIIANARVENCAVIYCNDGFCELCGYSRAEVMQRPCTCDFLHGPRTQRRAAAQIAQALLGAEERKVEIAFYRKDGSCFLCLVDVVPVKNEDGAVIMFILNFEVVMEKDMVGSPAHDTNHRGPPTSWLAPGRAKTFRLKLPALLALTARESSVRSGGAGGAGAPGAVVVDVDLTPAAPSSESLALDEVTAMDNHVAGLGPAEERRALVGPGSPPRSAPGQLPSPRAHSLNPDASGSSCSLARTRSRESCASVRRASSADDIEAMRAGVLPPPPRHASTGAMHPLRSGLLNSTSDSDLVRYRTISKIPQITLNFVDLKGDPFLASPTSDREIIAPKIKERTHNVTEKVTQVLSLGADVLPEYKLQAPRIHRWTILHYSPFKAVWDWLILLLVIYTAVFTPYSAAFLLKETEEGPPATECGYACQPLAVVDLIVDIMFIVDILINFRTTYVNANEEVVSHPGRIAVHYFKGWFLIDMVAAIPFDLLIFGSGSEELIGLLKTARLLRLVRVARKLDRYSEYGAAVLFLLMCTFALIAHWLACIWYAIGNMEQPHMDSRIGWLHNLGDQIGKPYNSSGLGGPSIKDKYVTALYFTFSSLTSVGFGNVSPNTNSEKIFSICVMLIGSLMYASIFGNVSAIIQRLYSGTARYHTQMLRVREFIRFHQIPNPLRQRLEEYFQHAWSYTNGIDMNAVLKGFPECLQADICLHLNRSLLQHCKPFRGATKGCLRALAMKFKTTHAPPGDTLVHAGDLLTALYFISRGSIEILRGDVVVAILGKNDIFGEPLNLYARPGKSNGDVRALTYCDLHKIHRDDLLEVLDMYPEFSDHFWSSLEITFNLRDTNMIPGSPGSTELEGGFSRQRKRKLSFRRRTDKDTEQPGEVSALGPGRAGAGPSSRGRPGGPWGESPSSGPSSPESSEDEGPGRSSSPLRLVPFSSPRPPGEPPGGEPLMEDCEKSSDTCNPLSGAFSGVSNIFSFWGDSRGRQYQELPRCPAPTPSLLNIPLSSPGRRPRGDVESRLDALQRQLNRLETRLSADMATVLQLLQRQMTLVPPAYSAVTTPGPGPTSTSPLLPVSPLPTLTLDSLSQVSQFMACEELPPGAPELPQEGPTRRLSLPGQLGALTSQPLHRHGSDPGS
row,Structure (SMILES),"hERG current change (%, negative = inhibition) at 1uM [%]"
1,COc1cccc(OC)c1OCCOCCn1cnc2ccccc2c1=O,12.5
2,CC(C)(C)c1nc2c(s1)CCc1onc(-c3ccc(Br)cc3)c1-2,13.6
3,O=C(NCc1ccco1)c1cccc(-c2nnc(-c3ccccc3)o2)c1,-5.63
4,O=c1[nH]c2cc3c(cc2cc1CN(CCCO)Cc1nnnn1Cc1ccc(F)cc1)OCO3,11.3
5,COc1ccc(OCC(=O)Nc2ncc3c(n2)CC(C)(C)CC3=O)cc1,7.43
6,Cc1ccc(C(=O)N2CCN(C(=O)CN3CCOCC3)C2)cc1,0.778
7,CSCC[C@H](N)C(=O)NCC1CCC(C(=O)Nc2ccc3c(c2)OCO3)CC1 (stereo partly shown),9.9
8,COc1ccc(CSc2nnnn2-c2ccc(C(N)=O)cc2)cc1[N+](=O)[O-],15.7
9,O=C(COC(=O)c1ccco1)NC1CCCC1,18.1
10,O=C(Nc1nc2ccccc2s1)c1cnccn1,10.7
11,COC(=O)c1ccc(NS(=O)(=O)NC(=O)c2c[nH]c3ccccc23)cc1,22.2
12,CCOCCCn1c(C)nc2c(c1=O)c1nc3ccccc3nc1n2CCC1=CCCCC1,2.83
13,CCc1ccc(NC(=O)CSc2nc3[nH]ncc3c(=O)[nH]2)cc1,13.9
14,CC(C)=CC(=O)O[C@H]1[C@@H]2[C@H](C)C(=O)O[C@@H]2C[C@@H](C)[C@@H]2[C@@H](O)CC(=O)[C@]21C,11.3
15,COC(=O)c1cc(C(=O)c2ccc(Cl)cc2)n2c(=O)/c(=C\N(C)C)sc12,9.95
16,CCN1CCN(Cc2ccc(NC(=O)c3ccc(C)c(NC(=O)c4c[nH]c5cc(C(F)(F)F)ccc5c4=O)c3)cc2C(F)(F)F)CC1,11.9
17,CC(C)CC(=O)/C(=C/c1ccc(N(C)C)cc1)n1cncn1,16.5
18,O=C(NCc1cccnc1)c1ccc(Cn2c(=S)[nH]c3ccc(Br)cc3c2=O)cc1,12.9
19,Cc1cccc(C(=O)Nc2ccc(C(=O)/C=C/c3cccnc3)cc2)c1,9.38
20,Cc1ccc(C(=O)N/C(=C\c2ccc(-c3ccc(Br)cc3)o2)C(=O)NC2CCS(=O)(=O)C2)cc1 (stereo not shown),7.85
21,O=C(NC1CCS(=O)(=O)C1)c1cccc(S(=O)(=O)N2CCCC2)c1 (stereo not shown),15.3
22,O=C(CSc1n[nH]c(-c2cccnc2)n1)OC1CCCCC1,14.2

row,Structure (SMILES),"hERG current change (%, negative = inhibition) at 1uM [%]"
1,Cc1ccc(-n2cccc2C(=O)NS(=O)(=O)c2ccc(C)cc2)cc1,1.73
2,COc1ccccc1CN(Cc1nc2ccccc2c(=O)[nH]1)C(=O)Nc1ccccc1C,10.1
3,COc1ccc(-c2c(C(F)(F)F)oc3c(CN4CCN(C)CC4)c(O)ccc3c2=O)cc1,18.4
4,O=c1oc2cc(O)ccc2cc1-c1ccccc1,25.2
5,CN(Cc1cccc2cnccc12)C(=O)c1cc(COc2ccc(F)cc2Cl)on1,19.5
6,O=C(O)c1ccc(CNC(=O)c2ccc(C(F)(F)F)cc2)cc1,10.3
7,CCOC(=O)N1CCN(CC(=O)N2c3ccccc3CCc3ccccc32)CC1.O=C(O)C(=O)O,3.83
8,Cc1ccc(O)c(C2=Nc3ccccc3N=C(c3cccs3)C2)c1,12.4
9,Cc1ccccc1NC(=O)c1ccc2c(O)c(S(=O)(=O)c3ccccc3)c(=O)[nH]c2c1,6.14
10,CCC(=O)Nc1ccc(C(=O)CN2C(=O)NC3(CCOc4ccccc43)C2=O)cc1 (stereo not shown),2.73
11,COc1ccc(Cl)cc1S(=O)(=O)N1CCCC1=O,13.6
12,CCOC(=O)c1[nH]cnc1C(=O)Nc1cccc(OC)c1,8.6
13,O=C(NC12CC3CC(CC(C3)C1)C2)c1ccccc1,15.6
14,Cc1onc(-c2c(F)cccc2Cl)c1C(=O)NCCc1ccncc1,8.41
15,CCOc1ccc(CNC(=S)N/N=C/c2ccc(OC)c(OC)c2)cc1,-1.05
16,Cc1ccc(-c2ccc(=O)n(Cc3cccc(Br)c3)n2)cc1,17.9
17,C=CCN1C(=O)C(Cc2ccc(F)cc2)S/C1=N/N=C/c1cccs1 (stereo not shown),-8.59
18,COc1ccc(-c2nnc(SCC(=O)Nc3sc4c(c3C#N)CCCC4)n2-c2ccccc2)cc1,13.9
19,NC(=O)CC(NC(=O)c1cccc(Br)c1)c1ccc(NCC2CC2)c([N+](=O)[O-])c1 (stereo not shown),1.58
20,CCN(CC)S(=O)(=O)c1ccc2oc(C(=O)NCCCN3CCOCC3)c(C)c2c1,9.23
21,CCCN(CCC)Cc1c(C(=O)N/N=C/C(C)=C\c2ccco2)nnn1-c1nonc1N,7.94
22,O=C(O)CC(CC(=O)Nc1ccc(-c2ccccc2)cc1)c1ccccc1 (stereo not shown),13

row,Structure (SMILES),"hERG current change (%, negative = inhibition) at 1uM [%]"
1,O=C(Nc1cccc(-c2cnc3ccccc3n2)c1)c1ccccc1,5.07
2,CCC(=O)Nc1sc(Cc2ccccc2)c(C)c1C(N)=O,9.28
3,O=C(NCCC1=CCCCC1)C(=O)c1c[nH]c2ccccc12,21.9
4,CC(C)(C)OC(=O)N/N=C/c1c[nH]c2ccccc12,7.74
5,O=C1CCCC(O)=C1N=Nc1ccc2ncsc2c1,4.98
6,COc1cc(OC)cc(C(=O)NCCCNC(=O)c2ccccn2)c1,16
7,CCOc1cc(C(=S)N2CCCCC2)ccc1OS(=O)(=O)c1ccc(Cl)cc1,6.25
8,COc1ccc(NC(=O)c2cccc(S(=O)(=O)NCc3ccco3)c2)c(OC)c1,8.14
9,CCn1c(=O)c(C(=O)NCc2ccccc2Cl)c(O)c2ccccc21,4.93
10,COc1ccc(S(=O)(=O)N2CCCC2)cc1C(=O)O,19.4
11,COc1ccc(N/C=C\C(=O)c2ccc(C)cc2)cc1OC,19.2
12,CN1CCc2c(sc(NC(=O)c3cc(Cl)sc3Cl)c2C(N)=O)C1.Cl,-3.99
13,COCCNC(=O)c1cn(C)c(=O)c2cc(OC)c(OC)cc12,15.5
14,CC(=O)Nc1nnc(CCN(CCc2nnc(NC(C)=O)s2)[N+](=O)[O-])s1,10.8
15,O=C(Cc1ccc(S(=O)(=O)N2CCOCC2)s1)N1CCN(c2cccc(C(F)(F)F)c2)CC1,0.747
16,Cc1ccc(-c2noc(CCC(=O)NCCN3CCN(Cc4ccccc4)CC3)n2)cc1,-15.1
17,COc1ccc(C(=O)N2CCN(C(C)=O)CC2)cc1S(=O)(=O)N1CCOCC1,14.4
18,O=C(Cc1cccs1)Nc1nnc(COc2ccccc2)s1,0.693
19,CCC(c1nnnn1CCOC)N(Cc1cc2cc(C)c(C)cc2[nH]c1=O)CC1CCCO1 (stereo not shown),7.8
20,CC(C)(C)c1cc(NC(=O)COc2ccc(Br)cc2)n(-c2ccccc2)n1,7.76
21,NNc1nc(-c2ccccc2Cl)nc2ccccc12,14.4
22,COC(=O)C1=C(C(=O)OC)[C@@H]2Nc3ccccc3[C@@]23C[C@@H](C(=O)OC)N(C(=O)C2CCC2)C3=N1,9.05

row,Structure (SMILES),"hERG current change (%, negative = inhibition) at 1uM [%]"
1,O=C(O)C(=O)O.OC(CNCC(c1ccco1)N1CCCCC1)c1ccccc1 (stereo not shown),8.11
2,Nc1cc(Cl)ccc1Oc1ccc2ccccc2c1,-4.96
3,O=C(Nc1nc2c(Cl)ccc(Cl)c2s1)C1CC1,5.76
4,O=C(NCCc1ccccc1)/C(=N\O)c1ccccc1,7.55
5,Nc1ccc(C(=O)N2N=C(c3ccccc3)CC2(O)C(F)(F)F)cc1 (stereo not shown),0.981
6,COc1cccc2c1C(=O)c1c(O)c3c(c(O)c1C2=O)C[C@](O)(C(C)=O)C[C@H]3O[C@@H]1C[C@@H](N)[C@@H](O)[C@@H](C)O1.Cl,4.93
7,CCc1ccc(NC(=O)CSCCO)cc1,7.59
8,C=CCSC1=N/C(=C\c2cc(OCC)c(OC(C)=O)c([N+](=O)[O-])c2)C(=O)S1,2.71
9,COc1cc(C(O)CN)ccc1O.Cl (stereo not shown),7.49
10,N#Cc1ccc(CSc2nnc(-c3cnccn3)o2)cc1,-8.11
11,Cc1cc(C)n(CCC(=O)Nc2cccc(F)c2)n1,6.01
12,O=C(O)CCCC(=O)N1CCC(C(O)(c2ccccc2)c2ccccc2)CC1,4.99
13,C=Cn1c(P(=S)(N2CCOCC2)N2CCOCC2)cc2c1CCCC2,2.78
14,COc1ccc([N+](=O)[O-])cc1NC(=O)CSCc1ccccc1C,3.97
15,CCC1CCCCN1Cc1nc2c(c(=O)n(C)c(=O)n2C)n1CCC(C)C (stereo not shown),5.24
16,Cc1ccc(NC(=O)CSc2nc(=O)cc(N)n2CCc2ccccc2)cc1,-6.64
17,COc1ccc(C2C(C#N)=C(N)Oc3n[nH]c(C)c32)cc1Cn1nnc2ccccc21 (stereo not shown),-1.44
18,COc1ccc(-c2nc(CN3CCC(C(=O)NC4CC4)CC3)c(C)o2)cc1OC,7.74
19,COc1ccc(NC(=S)N/N=C/c2cccn2Cc2ccc(F)cc2Cl)cc1,11.1
